# In the supplement of paper PMC9334596:
# Where “and” joins values, the source holds several entries; their conditions need not be identical. Equal values may be shown once. Over roughly 5,300 compounds, “PER2::LUC luminescence relative to vehicle control” has its median near 0.96; the highest 2% begin near 1.3. The list shows a part of the results.
# Test system: mPer2Luc MEF
# Experiment: PER2::LUC luminescence relative to vehicle control (fold of vehicle); higher = higher PER2::LUC reporter signal
# Settings: 10 µM
# Procedure, shortened: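 The reported values are PER2::LUC luminescence as fold of vehicle control in mouse embryonic fibroblasts carrying the mPer2Luc reporter. Cells were seeded at ~3000 per well in 384-well plates in DMEM with 10% FBS at 37 °C and 5% CO2, and compounds were added at 10 μM 48 h later. ONE-Glo luminescence was read 24 h and 30 h after treatment.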
Structure (SMILES),PER2::LUC luminescence (time after treatment 24 h),PER2::LUC luminescence (time after treatment 30 h)
COc1cc(F)c(C(C)C)cc1-c1ccc(C(F)(F)F)cc1CN1C(=O)O[C@H](c2cc(C(F)(F)F)cc(C(F)(F)F)c2)[C@@H]1C,1.22,1.14
CO[C@H]1/C=C/O[C@@]2(C)Oc3c(C)c(O)c4c(O)c(c(/C=N/N5CCN(C)CC5)c(O)c4c3C2=O)NC(=O)/C(C)=C\C=C\[C@H](C)[C@H](O)[C@@H](C)[C@@H](O)[C@@H](C)[C@H](OC(C)=O)[C@@H]1C,1 and 0.955,0.891 and 0.875
C[C@@H]1CC[C@H]2C(C)(C)[C@H]3C[C@@]12CC[C@@]3(C)O,1.11,1.04
Cc1c(Cl)cccc1Nc1ccccc1C(=O)O,0.934,1.2
CCCSc1ccc2[nH]c(NC(=O)OC)nc2c1,0.764,0.909
CC(C)Nc1cc(-c2c[nH]c(C(=O)N[C@H](CO)c3cccc(Cl)c3)c2)c(Cl)cn1,0.441,0.323
Cc1ccc(N(CC2=NCCN2)c2cccc(O)c2)cc1,0.996 and 0.875 and 0.571,0.905 and 0.86 and 0.96
CNc1ncnc2c1ncn2[C@H]1C[C@H](O)[C@@H](CO)O1,1.04,0.963
COc1cc2occ(-c3ccc(OC)c(OC)c3OC)c(=O)c2cc1OC,0.954,0.925
CNC[C@@H](O)c1ccc(O)c(O)c1,1.31,1.31
COc1ccc2[nH]cc(CCNC(=O)C3CC3)c2c1,0.901,0.938
CCc1ccc(CCOc2ccc(CC3SC(=O)NC3=O)cc2)nc1 (centres undefined),0.97 and 0.926 and 0.927,1.11 and 0.952 and 0.834
CC[n+]1c(/C=C/C=C2/N(C)c3ccccc3C2(C)C)sc2ccccc21,0.0519,0.0512
O=C(O)c1ccccc1-c1c2cc(I)c(=O)c(I)c-2oc2c(I)c(O)c(I)cc12,0.805,0.761
CC(C)(C)c1ccc(/C=C/C(=O)Nc2ccc3c(c2)OCCO3)cc1,0.942,1.11
CNC(=O)[C@H]1O[C@@H](n2cnc3c(N)ncnc32)[C@H](O)[C@@H]1O,1.11,1.03
CCCCCCCCCCCCCCCC(=O)NCC(COP(=O)([O-])OCC[N+](C)(C)C)OCC (racemic),0.878,0.866
CC(=O)OCC(=O)[C@H]1CC[C@H]2[C@@H]3CC=C4C[C@@H](O)CC[C@]4(C)[C@H]3CC[C@]12C,0.899,0.876
CC1=CC(=O)[C@H]2C(C)(C)CCC[C@]2(C)[C@@]1(O)CCc1ccoc1,0.897,0.907
NCCCCC(=O)O,1.07 and 0.935,1.05 and 0.888
c1ccc(CC2=NCCN2)cc1,0.877,0.951

Structure (SMILES),PER2::LUC luminescence (time after treatment 24 h),PER2::LUC luminescence (time after treatment 30 h)
CC(C)(Oc1ccc(CCNC(=O)c2ccc(Cl)cc2)cc1)C(=O)O,0.844,0.913
OCCN1CCN(CCCN2c3ccccc3Sc3ccc(C(F)(F)F)cc32)CC1,0.701 and 0.656,0.61 and 0.647
O=C(O)CCc1nc(-c2ccccc2)c(-c2ccccc2)o1,1,0.853
CC1(C)C=Cc2c(c3c(c4c(=O)c(-c5ccc(O)cc5)coc24)OC(C)(C)CC3)O1,0.576,0.757
O=C(c1cc(Cc2n[nH]c(=O)c3ccccc23)ccc1F)N1CCN(C(=O)C2CC2)CC1,0.993,0.823
CCc1nn(CCO)c(CC)c1Oc1cc(C#N)cc(C#N)c1,1.08,1.12
O=C(O)CCCc1c[nH]c2ccccc12,1.06,1.08
CC(C)[C@@H](C)/C=C/[C@@H](C)[C@H]1CC[C@H]2C3=CC=C4C[C@@H](O)CC[C@]4(C)[C@H]3CC[C@]12C,0.931,1.01
O=C1c2ccccc2C(=O)C1c1ccccc1,1.05 and 0.913,1 and 0.991
Clc1ccc2c(c1)C(N1CCNCC1)=Nc1ccccc1O2,0.542,0.503
CC[C@H]1OC(=O)[C@H](C)[C@@H](O[C@H]2C[C@@](C)(OC)[C@@H](O)[C@H](C)O2)[C@H](C)[C@@H](O[C@@H]2O[C@H](C)C[C@H](N(C)C)[C@H]2O)[C@](C)(O)C[C@@H](C)C(=O)[C@H](C)[C@@H](O)[C@]1(C)O,0.913 and 0.822,0.946 and 0.902
CC(C(=O)O)c1ccc(CC2CCCC2=O)cc1 (centres undefined),0.779 and 1.02,1.36 and 1.08
O=C(O)CCc1c(C(=O)O)[nH]c2cc(Cl)cc(Cl)c12,1.03,0.901
CC1=C(/C=C/C(C)=C/C=C/C(C)=C/C=C/C=C(C)/C=C/C=C(C)/C=C/C2=C(C)CCCC2(C)C)C(C)(C)CCC1,1.07,0.941
NC(=O)c1ccccc1O,1.18,0.839
CCCCN1CCC(n2c(=O)[nH]c3ccccc32)CC1,0.829,0.913
CC1(C)CCC(c2ccc(Cl)cc2)=C(CN2CCN(c3ccc(C(=O)NS(=O)(=O)c4ccc(N[C@H](CCN5CCOCC5)CSc5ccccc5)c(S(=O)(=O)C(F)(F)F)c4)cc3)CC2)C1,0.836 and 0.446,0.873 and 0.394
O=C(COc1ccc(C(=O)c2ccccc2)cc1)NC1CCN(Cc2ccccc2)CC1,0.834,0.796
COc1ccc(C(=O)CCC(=O)O)c2ccccc12,0.962,0.886
CO[C@H]1[C@H](OC(=O)c2ccc(C)[nH]2)[C@H](O)[C@@H](Oc2ccc3c(O)c(NC(=O)c4c[nH]c(C(=O)Nc5c(O)c6ccc(O[C@H]7OC(C)(C)[C@@H](OC)[C@H](OC(=O)c8ccc(C)[nH]8)[C@@H]7O)c(C)c6oc5=O)c4C)c(=O)oc3c2C)OC1(C)C,1.1,1.13
Nc1nc(F)nc2c1ncn2[C@@H]1O[C@H](COP(=O)(O)O)[C@@H](O)[C@@H]1O,0.978,0.923

Structure (SMILES),PER2::LUC luminescence (time after treatment 24 h),PER2::LUC luminescence (time after treatment 30 h)
O=C(NOCC1CC1)c1ccc(F)c(F)c1Nc1ccc(I)cc1Cl,0.886 and 0.469,0.637 and 0.442
CCOC(=O)N1CCC(=C2c3ccc(Cl)cc3CCc3cccnc32)CC1,0.934,0.965
N[C@H](CC(=O)O)C(=O)O,1.09,1.08
Oc1c(Br)cc(Br)c2cccnc12,1.15 and 1.02,0.814 and 1.13
COc1ccc(-c2coc3cc(O)ccc3c2=O)cc1,1.77,1.97
CN1CCN(S(=O)(=O)c2ccc(-c3cnc(N)c(C(=O)Nc4cccnc4)n3)cc2)CC1,1.01,0.552
CNc1nc(-c2ccc3c(N)n[nH]c3c2)cc(N2C[C@@H](C(=O)NC3CCCCC3)CC[C@H]2C)n1,0.538,0.486
CS(=O)(=O)c1ccc(C(=O)Nc2ccc(Cl)c(-c3ccccn3)c2)c(Cl)c1,1.17,1.14
CNC(=O)c1cc(Oc2ccc(NC(=O)c3cccc(C(F)(F)F)c3)cc2)ccn1,1.15,1.14
"Cc1ccc2c(c1)C(=O)C1(O)CCN(c3ccccc3)C1=N2 (single isomer, unassigned; (-))",0.694,0.733
O=C(OCCN1CCOCC1)C1(c2ccccc2)CCCCC1,0.994,0.9
COc1ccc(CC(C)NCC(O)c2ccc(O)c(NC=O)c2)cc1 (centres undefined),1.02 and 1.05,1.09 and 1.02 and 1
NC(=O)N1CCC(CC(=O)N2CCC([C@H]3c4ncc(Br)cc4CCc4cc(Cl)cc(Br)c43)CC2)CC1,1.05,1.25
COc1cc(OC)c2c(=O)c(OC)c(-c3ccccc3)oc2c1,0.568,0.907
CCN(CC)CCNC(=O)c1ccc(NS(C)(=O)=O)cc1,0.989,1.06
O=C1N[C@H](C(=O)O)CS1,0.846,0.838
C[C@H](N[C@@H](CCc1ccccc1)C(=O)O)C(=O)N1CCC[C@H]1C(=O)O,1.02 and 0.824,0.892 and 1.05
COc1cc2nc(N3CCN(C(=O)OCc4ccccc4)[C@H](C(=O)NC(C)(C)C)C3)nc(N)c2cc1OC,0.874,0.957
CN(C)[C@@H]1C(O)=C(C(N)=O)C(=O)[C@@]2(O)C(O)=C3C(=O)c4c(O)cccc4[C@@](C)(O)[C@H]3C[C@@H]12,1.16,1.03
O=C(Nc1cccnn1)N1CCC(=Cc2cccc(Oc3ccc(C(F)(F)F)cn3)c2)CC1,0.929,0.809
O=C(O)C1CCCNC1 (racemic),0.948,0.967

Structure (SMILES),PER2::LUC luminescence (time after treatment 24 h),PER2::LUC luminescence (time after treatment 30 h)
O=C1/C(=C/c2cccs2)CC/C1=C\c1cccs1,1.07,1.01
C[C@]12CCC(=O)C=C1CC[C@@H]1[C@@H]2C(=O)C[C@@]2(C)[C@H]1CC[C@]2(O)C(=O)CO,0.998,0.948
COCCCC/C(=N\OCCN)c1ccc(C(F)(F)F)cc1,0.826 and 0.832,0.815 and 0.748
CCCCc1ccc(NC(C)=O)c(C)c1,1.1,1.05
CC(=O)[C@@]12O[C@](C)(c3ccccc3)O[C@@H]1C[C@H]1[C@@H]3CCC4=CC(=O)CC[C@]4(C)[C@H]3CC[C@@]12C,0.612,1.19
NC(=O)N[C@@H](CCC(=O)O)C(=O)O,1.04,0.955 and 1.11
O=C(O)CCCc1ccccc1,1.03 and 0.98 and 0.985,0.975 and 1 and 0.888
Cc1cnc(NC(=O)C2=C(O)c3ccccc3S(=O)(=O)N2C)s1,1.06 and 1.19,1.1 and 0.957
CC(C)NCC(O)COc1ccc(CC(N)=O)cc1 (racemic),0.92,1.01
N=C(N)SCCc1c[nH]cn1,1.01,1.13
CC1(C)O[C@@H]2C[C@H]3[C@@H]4CCC5=CC(=O)C=C[C@]5(C)[C@@]4(F)[C@@H](O)C[C@]3(C)[C@]2(C(=O)CO)O1,0.583,1.35
NC1=NCCN1CC(=O)O,1.08,1.08
c1ccc(CN2CCC3(CCc4ccccc43)CC2)cc1,1.03,0.943
OC1(c2ccc(Cl)c(C(F)(F)F)c2)CCN(CCCC(c2ccc(F)cc2)c2ccc(F)cc2)CC1,0.334,0.313
C[C@@H]1C[C@H]2[C@@H]3CCC4=CC(=O)C=C[C@]4(C)[C@@]3(F)[C@@H](O)C[C@]2(C)[C@@]1(O)C(=O)CO,0.654,1.12
O=C(O)COC(=O)Cc1ccccc1Nc1c(Cl)cccc1Cl,1.15,1.03
CC(C)Oc1ccc(C(=O)N[C@H](CNC(=O)CN(C)C)Cc2ccc(-c3cn4cccc([C@H](C)O)c4n3)cc2)cc1Cl,0.763,0.841
CN(C)c1ccc(/C=C2/C(=O)Nc3ccccc32)cc1,1.06,1.12
Cc1nnc(NS(=O)(=O)c2ccc(N)cc2)s1,0.999,1.02
